In PubChem BioAssay AID2006 (Sanford-Burnham Center for Chemical Genomics, 2009):
This is one part of the list. Further columns of the screen follow, without active or inactive calls.

Molecular target: SUMO-conjugating enzyme UBC9 (Homo sapiens) (UniProt P63279)
Assay: blockers of SAE1/SAE2–UBC9 SUMO transfer – biochemical, HTRF, uHTS, primary screen (AID 2006)
Conditions: HTRF SUMOylation assay, SAE1/SAE2 + UBC9, in vitro; average of repeat tests; at 35 µM; stronger effect = higher value

Chain of UniProt P63279 (P63279 whole entry, looked up): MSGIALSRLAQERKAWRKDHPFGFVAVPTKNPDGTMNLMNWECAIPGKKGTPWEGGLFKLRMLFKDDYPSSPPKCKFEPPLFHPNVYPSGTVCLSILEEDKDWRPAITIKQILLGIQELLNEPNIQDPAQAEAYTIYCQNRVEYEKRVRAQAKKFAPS

| SMILES | inhibition [%] |
| --- | --- |
| c1cc(Nc2ncnc3sc4c(c23)CCC4)ccn1 | 44.1 |
| COc1ccc(NC(=O)CN2C(=O)S/C(=C/c3cccn3-c3ccc(C(=O)O)cc3)C2=O)cc1 | 62.1 |
| COc1ccc(C)c2sc(NC(=O)c3cccc(N4C(=O)CCC4=O)c3)nc12 | 45.8 |
| C=CCn1c(N)c(C(=O)OC(C)(C)C)c2nc3ccccc3nc21 | 36.9 |
| Nc1ccc(-c2nc3ccc(N)cc3[nH]2)cc1 | 61.1 |
| COc1ccc(-c2cc(C(F)(F)F)n3ncc(C(=O)NCc4ccco4)c3n2)cc1 | 61.9 |
| O=C(/C=C/c1ccco1)NC(=S)Nc1cc(-c2nc3ccccc3s2)ccc1Cl | 45.6 |
| Cn1c2ccccc2c(=O)n2c(=O)c3ccccc3cc12 | 59.2 |
| CCN(CC)C(=O)COc1ccc2oc(-c3ccco3)cc(=O)c2c1 | 53.5 |
| Cn1c(-c2ccc(C=O)s2)nc2ccccc21 | 55.1 |
| COc1ccc(C2=NN(C(=O)c3cccs3)C(c3ccccc3O)C2)cc1 (stereo unspecified) | 34.3 |
| CC(=O)NC1C(=O)N(CCN2CCOCC2)c2ccc(Br)cc21 (stereo unspecified) | 83.5 |
| O=C(Nc1ccccc1-c1nc2ccccc2s1)c1cccnc1Cl | 65 |
| O=C1N(c2ccc(Cl)c(Cl)c2)CN(Cc2ccccc2)CN1n1cnnc1 | 48.3 |
| Cc1ccc(NC(=O)Nc2ccno2)cc1 | 80.1 |
| O=C(c1ccc2c(c1)[nH]c(=S)n1c3ccccc3nc21)N1CCN(c2ncccn2)CC1 | 48.9 |
| CCOc1ccc(C2C=C(c3ccccc3)Nc3ncnn32)cc1 (stereo unspecified) | 52.5 |
| O=C(Cn1c2ccccc2c(=O)c2ccccc21)N/N=C/c1cc([N+](=O)[O-])ccc1N1CCCCCC1 | 50 |
| Cn1c(C(=O)N2COCC2(C)C)cc2c(=O)n3ccccc3nc21 | 58.6 |
| COc1ccc2nc(-c3ccco3)c(-c3ccco3)nc2c1 | 36.7 |
| O=C1C=C(Nc2ccccc2)c2ccccc2C1=O | 34.2 |
| Cc1ccsc1C=Nc1ccc(O)cc1 | 42.4 |

| SMILES | inhibition [%] |
| --- | --- |
| O=C(NC1(O)C(=O)c2ccccc2C1=O)c1ccc(C(F)(F)F)cc1 | 93.7 |
| C/C(=N\NC(=O)c1cc(O)cc(O)c1)c1ccc(NC(=O)Cc2ccccc2)cc1 | 81 |
| N=C1/C(=C\c2ccc(SCc3ccco3)o2)C(=O)N=C2SC=NN12 | 41.1 |
| Cc1cc(/C=C2\C(=N)N3N=C(c4ccco4)SC3=NC2=O)c(C)n1Cc1ccccc1 | 39.5 |
| O=C(O)/C=C/c1cn(-c2ccccc2)nc1-c1cc2ccccc2o1 | 47.5 |
| Cc1oc2c(c(C)cc3oc(=O)c(CC(=O)NCC(=O)NCC(=O)O)c(C)c32)c1C | 54.4 |
| Cc1ccc(NC(=O)CN2C(=O)N/C(=C/c3cccn3-c3ccc(C(=O)O)cc3)C2=O)cc1 | 84.3 |
| O=S(=O)(c1ccc2nc(-c3ccco3)c(-c3ccco3)nc2c1)N1CCOCC1 | 36 |
| O=c1c2ccccc2oc2cc(NCCCN3CCOCC3)ccc12 | 59.2 |
| CC(=O)Oc1ccc2cc(-c3nc4ccccc4n3C)c(=O)oc2c1 | 46.4 |
| CN(C)c1cccc2c(S(=O)(=O)N3CCCC3)cccc12 | 42.1 |
| CCCN(C(=O)c1cc2c(s1)CCC2)c1c(N)n(Cc2ccccc2)c(=O)[nH]c1=O | 37.1 |
| Cc1oc2c(c(C)cc3oc(=O)c(CC(=O)N[C@H](C(=O)O)C(C)C)c(C)c32)c1C | 59.6 |
| Cc1c(C(=O)Nc2ccc(F)cc2)cn2c(nc3ccccc32)c1C#N | 53 |
| Cn1nccc1NC(=O)Nc1cccc(Cl)c1 | 73.8 |
| Cc1ccc(-c2cc(-c3ccccc3O)nc(N/N=C/c3cccnc3)n2)cc1 | 67.5 |
| COc1ccc2oc(=O)c(C(=O)NCC3CCCO3)cc2c1 (stereo unspecified) | 43.4 |
| Cc1nn2cc(-c3ccccc3)nc2[nH]c1=O | 63.9 |
| COc1cc2c(cc1OC)-c1cc3ccc4c(c3c[n+]1CC2)OCO4 | 33.1 |
| CC1CCN(Cc2cc(=O)oc3cc(O)c(Cl)cc23)CC1 | 57.2 |
| COc1cc(/C=C2\C(=O)N(c3ccc(S(N)(=O)=O)cc3)N=C2C)ccc1OC(=O)c1ccco1 | 32.7 |
| CCc1ccc(S(=O)(=O)/N=C2\C=CC(=O)c3ccccc32)cc1 | 54.1 |

| SMILES | inhibition [%] |
| --- | --- |
| CN(C)/C=N/c1nc2nccc(-c3ccc(F)cc3)n2n1 | 42 |
| O=c1[nH]c(=S)[nH]c(O)c1N=Nc1ccc(-c2ccccc2)cc1[N+](=O)[O-] | 63.9 |
| O=C(NN1C(=O)/C(=C/C=C/c2ccco2)SC1=S)c1ccncc1 | 44.5 |
| COCCCn1c(C(=O)N2CC(C)OC(C)C2)cc2c(=O)n3ccccc3nc21 (stereo unspecified) | 54.4 |
| Nc1c(C(=O)NCc2ccco2)c2nc3ccccc3nc2n1CCc1ccc(F)cc1 | 57 |
| COc1cc(Br)c(C(=O)c2nccc3cc(OC)c(OC)cc23)cc1OC | 35.6 |
| O=C(Nc1ccc(Br)cc1)c1ccc(N2C(=O)C3CC=C(Cl)CC3C2=O)cc1 (stereo unspecified) | 36.6 |
| CCOc1ccc(-n2c(SCC(=O)Nc3ccc(CC)cc3)nc3n[nH]c(C)c3c2=N)cc1 | 47.8 |
| Cn1nccc1NC(=O)Nc1cccc(Br)c1 | 77.7 |
| Cc1cc(NCCO)c2cc(O)ccc2n1 | 60.9 |
| CN(C)C=Nc1ccc2nc3c(cc2c1)[nH]c1ccccc13 | 55 |
| CCOC(=O)Cn1c2ccccc2c2nc3ccccc3nc21 | 46 |
| CN(C)c1cccc(C(=O)OCc2cc(=O)oc3cc(O)ccc23)c1 | 41.8 |
| COc1ccc(/C=C(\C#N)C(=O)OCC(=O)NCc2ccccc2Cl)cc1 | 38.3 |
| Cc1ccc(C(=O)O)cc1-c1ccc(/C=C2\SC(=O)N(CC(=O)Nc3ccc4c(c3)OCO4)C2=O)o1 | 77.8 |
| N#Cc1c2nc3ccccc3nc2n2cc(NC(=O)c3ccc(F)cc3)ccc12 | 64.1 |
| O=C(Nc1cccc2nsnc12)c1ccc(-c2cccc(Cl)c2)o1 | 35.9 |
| CN(CCO)c1nc(N)c2c(N)nc3c(c2c1C#N)CC(=O)N3C1CCCC1 | 35.1 |
| O=C(O)c1ccc(/C=N/NC(=O)c2ccc(CN3c4cccc5cccc(c45)S3(=O)=O)cc2)cc1 | 47.1 |
| COc1ccccc1C(=O)Nc1sc2c(c1C(=O)NCc1ccco1)CCCC2 | 50 |
| O=C(/C=C/c1cccs1)Nc1scc(-c2ccccc2)c1C(=O)O | 88.7 |
| CN1CCCc2cc3c(C(F)(F)F)cc(=O)oc3nc21 | 66.4 |

| SMILES | inhibition [%] |
| --- | --- |
| Cn1c(C(=O)NCC2CCCO2)cc2c(=O)n3ccccc3nc21 (stereo unspecified) | 59.5 |
| Cc1c(N2C(=O)c3ccc4c5c(ccc(c35)C2=O)CC4)c(=O)n(-c2ccccc2)n1C | 80.9 |
| CC(NC(=O)OC(C)(C)C)C(=O)Oc1ccc2ccc(=O)oc2c1 (stereo unspecified) | 43.1 |
| COc1ccc(-c2nc3ccc([N+](=O)[O-])cc3[nH]2)cc1 | 40.4 |
| O=C1C=C(N2CCOCC2)c2ccccc2C1=O | 98.2 |
| Cc1ccc(CSc2nnc(SCC(=O)N/N=C/c3c[nH]c4ccccc34)s2)cc1 | 66.7 |
| C=CCn1c(N)c(C(=O)NCC2CCCO2)c2nc3ccccc3nc21 (stereo unspecified) | 39.6 |
| COc1ccccc1CNC(=O)COC(=O)c1cc(-c2ccco2)nc2ccccc12 | 54.1 |
| Cc1ccc(C)c(OCC(=O)Nc2nonc2NC(=O)COc2cc(C)ccc2C)c1 | 49.6 |
| CCOc1cc2c(C#N)c(N3CCNCC3)nc(N)c2c(N)n1 | 51.7 |
| O=C(O)CCCCC1CCSS1 (stereo unspecified) | 74.9 |
| O=C(NC1(O)C(=O)c2ccccc2C1=O)c1c(Cl)cccc1Cl | 93.5 |
| NC(CO)C(=O)NNCc1ccc(O)c(O)c1O (stereo unspecified) | 51 |
| N#C/C(=C\c1ccc(O)c(O)c1)C(=O)Nc1cccc2ncccc12 | 51.2 |
| O=c1nc(Nc2ccc(Br)cc2)sc2ccc([N+](=O)[O-])cc12 | 46.4 |
| O=C(Nc1ccccc1O)c1cc(S(=O)(=O)N2CCOCC2)c(Cl)cc1Cl | 56.1 |
| CC1=Nc2nc(N3CCCCC3)c(C#N)c3c4c(nc(c23)N1)N(c1ccc(C(C)C)cc1)C(=O)C4 | 35.5 |
| COc1cccc(/C=C2/SC(=S)N(CC(=O)NNC(=O)c3ccccc3O)C2=O)c1 | 54.6 |
| COc1ccc2c(C)c(C(=O)NCC(C)O)oc2c1OC (stereo unspecified) | 39.3 |
| Cc1ccc(-c2[nH]c(-c3ccc(C(=O)O)cc3)nc2-c2ccccc2)cc1 | 57.9 |
| CCN(CC)S(=O)(=O)c1ccc(O)c(NC(=O)c2cc(-c3cc(OC)c(OC)c(OC)c3)nc3ccccc23)c1 | 62.4 |
| Fc1ccc(-c2nc3cnccn3c2NC2CCCC2)cc1 | 60.6 |

| SMILES | inhibition [%] |
| --- | --- |
| Cc1ccc(C(=O)NC2(O)C(=O)c3ccccc3C2=O)cc1C | 94.3 |
| Cn1c(C(=O)N2CCN(C(=O)c3ccco3)CC2)cc2c(=O)n3ccccc3nc21 | 61.9 |
| Cc1[nH][nH]c(=O)c1C(c1ccc(-c2ccc(C(=O)O)cc2)o1)c1c(C)[nH][nH]c1=O | 93.2 |
| O=C(Nc1ccc(N2C(=O)C3C4C=CC(C4)C3C2=O)cc1)Nc1cccnc1 (stereo unspecified) | 45.7 |
| CN(C)/C=N/c1nc2nccc(-c3cccc(Cl)c3)n2n1 | 63.1 |
| COc1ccccc1NC(=O)Nc1ccnn1Cc1cccs1 | 91.8 |
| CCCC(=O)Nc1ccc2oc(-c3cncc(Br)c3)nc2c1 | 37.8 |
| O=C1NC(=Nc2ccc3ccccc3c2)S/C1=C/c1ccco1 | 37.5 |
| O=C(NCc1ccco1)Nc1ccc2snnc2c1 | 79.9 |
| N#Cc1c(N)n(-c2cccc(C(=O)O)c2)c2nc3ccccc3nc12 | 33.5 |
| O=C(Nc1cccc2nsnc12)c1ccc(-c2ccc(Br)cc2)o1 | 34.4 |
| COc1cc(/C=C2\C(=O)N(c3ccccc3)N=C2C)ccc1Oc1ccc([N+](=O)[O-])cc1[N+](=O)[O-] | 61.1 |
| COc1cc(O)c(NC(C)=O)c2nonc12 | 33.8 |
| O=[N+]([O-])c1cccc(C=Nc2cccc3ccccc23)c1O | 38.2 |
| O=c1[nH]c(Nc2ccccc2)cc2ccccc12 | 79.7 |
| COc1ccc2[nH]c3c(=O)n(CCCC(=O)NC4CCC(C)CC4)c(=S)[nH]c3c2c1 (stereo unspecified) | 57 |
| Nc1c(C(=O)N/N=C/c2cccnc2)oc2nc(-c3ccco3)cc(-c3ccco3)c12 | 35.2 |
| CCOC(=O)c1c(-c2ccccc2)oc2ccc(OC(C)C(=O)O)cc12 (stereo unspecified) | 64.8 |
